# Read counts are not given, so values of variants with three or more changes are uncertain.
# B1: OR4K15 (parent)
# chain: GUUAACGGUCAUAGGCCAUGGAAACUAGGAGCACCAUUUCGCUGCCAGUGAAGAAAUGAACAAAGAAAAUCUGGGCCAGGCAGGCAUCAAAAGAAAUAGUCUUGCGCUCAACCAGAAAGUCUGUAAUCAUUUUAAGGGUA
# Variants of: B1
# Experiment: self-cleavage, relative activity (ratio to wild type); higher = more cleavage; in vitro, sequencing; the parent is a self-cleaving ribozyme
row,Variant,self-cleavage
1,GUCAACGGUCAUAGGCCAUGGAAACUAGGAGCACCACAUCGCUGCCAGUGAAGAAAUGAACAAAGAAAAUCUGGGCCAGGCAGGCAACGAAAGAAAUAGUCUUGCGCUCGACCAGAAAGUCUGUAAUCAUUUUAAGGGUA [U3C U37C U38A U87A A89G A110G],0.08
2,GUUAACGGUCAUAGGCCAUGGAAACUAGGGGCCCCAUUUCGCUGCCGGUGAAGAAAUGAACAAAGUAAAUCUGGGCCAGGCAGGCACCAAAAGAAAUAGCCUUGCGCUCAACCAGAAAGUCUGUAAUCAUUUUAAGGGUA [A30G A33C A47G A66U U87C U100C],1.4
3,GUUAACGGUCAUAGGCCAUGGAAACUAGGAGCACCAUUUCGCUGCCAGCGAAGAAAUGAACAAAGAAAAUCUGGGCCAGGCAGGCAUCAAAAGAAAUAGUCCUGCGCCCAACCAGAAAGUCUGUAAUCAUUUUAAGGGUA [U49C U102C U108C],0
4,GUUAACGGUCAUAGGCCAUGGAAACUAGGAGCACCACCUCGCUGCCAGUGAAGAAAUGAUCAAAGAAAAUCUGGGCCAGGCAGGCAUCAAAGGAAAUAGUCUUGCGCCCAACCAGAAAGUCUGUAAUCAUUUUAAGGGUA [U37C U38C A60U A92G U108C],0.02
5,GAUAACGGUCAUAGGCCAUGGAAACUAGGAGCACCAUUUCGCUGCCAGUGAAGAAAUGAACAAAGAAAAUCCGGGCCAGGCAGGCAUCAAAAGAAAUAGGCUUGCGCUCAACCAGAAAGUCUGUAAUCAUUUUAAGGGUA [U2A U72C U100G],0.33
6,GUUAACGGCCAUAGGCCAUGGAAACUAGGAGCACCAUUUCGCUGCCAGUGAAGAAGUGAACAAAGAAAAUCUGAGCCAGGCAGGCAUCAAGAGAAAUAGUCUUGCGCUCAACCAGAAAGUCUGUAAUCAUUUUAAGGGUU [U9C A56G G74A A91G A140U],0.09
7,GUUAACGGUCGUAGGCCAUGGAAACUAGGAGCACCAUUUCGCUGCCAGUGAAGAAAUGAACAAAGGAAAUCUGGGCCAGGCAGGCAUCAAAAGAAAUAGUCUUGCGCUCAACCAGAAAGUCUGUAAUCAUUUUAAGGGUG [A11G A66G A140G],1.6
8,GUUAACGGUCAUAGGCCAUGGAAACUAGGAGCACCGUUUCGCUGCCGGUGAAGGAAUGAACAAAGAAAAUCUGGGCCAGGCAGGCAUCAAAAGAAAUAGUCUUGCGCUCAACCAGAAAGUCUGUAAUCAUUUUAAGGGUA [A36G A47G A54G],0.78
9,GUUAACGGUCAUAGGCCAUGGAAACUAGGAGCACCACUUCGCUGCCAGUGAAGAAAUGAACAAAGAGAAUCUGGGCCAGGCAGGCAUCAAAAGAAAUAGUCUUGCGCUCAACCAGAUAGUCUGUAAUCAUUUUAAGGGUA [U37C A67G A117U],0.57
10,GUUAACGGUCAUAGGCCAUGGAGACUAGGAGCACCAUUUCGCUGCCAGUGAAGAAAUGAACACAGAAAAUCAGGGCCAGGCAGGCAUCAAAAGAAAUAGUCUUGCGCUCAACCAGAGAGUCUGUAAUCAUUUUAAGGGUA [A23G A63C U72A A117G],0.77
11,GUUAUCGGUCAUAGGCCAUGGAAACUAGGAGCACCAUUUCGCUGCCAGUGAAGGAAUGAACAAAGAAAGUCUGGGCCAGGCAGGCGUCAAAAGAAAUAGUCUUGCGCUCAACCAGAAAGCCUGUAAUCAUUUUAAGGGUA [A5U A54G A69G A86G U120C],1.07
12,GUUAACGGUCAUAGGCCGUGGAAACUAGGAGCACCAUUUCGCCGCCAGUGAAGAAAUGAACGAAGAAGAUCUGGGCCAGGCAGGCAUCAAAAGAAAUAGUCUUGCGCUCAACCAGAAAGUCUGUAAUCGUCUUAAGGGUA [A18G U43C A62G A68G A129G U131C],0.94
13,GUUAACGGUCAUAGGCCAUGGGAGCUAGGAGCACCAUUUCGCUGCCAGUGAAGAAAUGAACAAAGAAAAUCUGGGCCAGGCUGGCAUCAAAAGAAAUAGUCUUGCGCUCAACCAGAAAGUCUGUAGUCAUUUUAAGGGUA [A22G A24G A82U A126G],0.07
14,GUUAACGGUCAUAGGCCAUGGAGACUAGGAGCACCAUUUCGCUGCCAGUGAGGAAAUGAACAAAGAAAAUCCGGGCCGGGCAGGCAUCAAAAGAAAUAGUCAUGCGCUCAACCAGAAAGUCUGUAAUCAUUUUAAGGGUA [A23G A52G U72C A78G U102A],0.11
15,GUUAACGGUCUUAGGCCAUGGAGACUAGGAGCACCAUUUCGCUGCCAGUGAAGAAAUGAACAAAGAAAAUCUGGGCCAGGCAGGCAUCAAAGGAAAUAGUCUUGCGCUCAACCAGAAAGUCAGUAAUCAUUCUAAGGGUA [A11U A23G A92G U122A U132C],0.59
16,GUUAACGGUCAUAGGCCAUGGAAACUAGGAGCACCAUUUCGCUGCCAGGGAAGAAGUGAACAAAGAAAAUCUGGGCCAGGCAGGCUUCAAAUGAAAUAGUCUUGCGCUCAACCAGAAAGUCUGUAAGCAUCUUAAGGGUA [U49G A56G A86U A92U U127G U131C],1.64
17,GUUUACGGUCAUAGGCCAUGGAAACUAGGAGCACCAUUUCGCUGCCAGUGAAGAAAUGAACAAAGAAAAUCUGGGCCAGGCAGGCAUCAAGAGGAAUAGUCUCGCGCUCGACCAGAAAGUCUGUAAUCAUUUUAAGGGUA [A4U A91G A94G U103C A110G],0.07
18,GUUAACGGUCAUAGGCCAUGGAAACUAGGAGCGCCAUUUCGCUGCCAGUGAAGAAAUGAACUAAGAAAAUCUGGGCCAGGCAGGCAUCAAUAGAAAUAGUCUUGCGCUCAACCAGAAAGUCUGUAAUCAUUAUAAGGGCA [A33G A62U A91U U132A U139C],0.98
19,GUUAACGGCCAUAGGCCAUGGAAACUAGGAGCACCAUAUCGCUGCCAGUGAAGAAAUGAACAAAGAAAAUCUGGGCCAGGCAGGCAUCAAAAGAAAUAGUCUCGCGCUCAACCAGAAAGUCUGUAAUCAUAUUAAGGGUA [U9C U38A U103C U131A],1.02
20,GUUAACGGUCAUAGGCCAUGGAAUCUAGGAGCACCAUUUCGCUGCCAGUGAAGAAAUGGACAAAGAAAAUCAGGGCCAGGCAGGCAUCAAAAGAAAUAGUCUUGCGCUCAACCAGAAAGUCUGUAAUCAUUUUAAGGGCA [A24U A59G U72A U139C],0.15
21,GUUAACGGUCAUAGGCCAUGGGAACUAGGAGCACCAUUUCGCAGCCAGUGAAGAAAUGAGCAAAGAAAAUCUGGGCCAGGCAGGCAUCAAAAGAAAUAGUCUUGCUCUCAACCAGAAAGUCUGUAAUCAUUUUAAGGGUA [A22G U43A A60G G106U],0.04
